Results reported in article PMC4049815.
These are yes or no findings as the source states them, for the method shown. In cells and extracts the contact can be indirect. Some results given as binding are weak or reduced against the parent protein; the word gives no strength. Sequences can lack the tags named with a protein. One block for each molecule: values may come before it.

Chains of the proteins cited; added tags and fusions are not shown.
UniProt P02340: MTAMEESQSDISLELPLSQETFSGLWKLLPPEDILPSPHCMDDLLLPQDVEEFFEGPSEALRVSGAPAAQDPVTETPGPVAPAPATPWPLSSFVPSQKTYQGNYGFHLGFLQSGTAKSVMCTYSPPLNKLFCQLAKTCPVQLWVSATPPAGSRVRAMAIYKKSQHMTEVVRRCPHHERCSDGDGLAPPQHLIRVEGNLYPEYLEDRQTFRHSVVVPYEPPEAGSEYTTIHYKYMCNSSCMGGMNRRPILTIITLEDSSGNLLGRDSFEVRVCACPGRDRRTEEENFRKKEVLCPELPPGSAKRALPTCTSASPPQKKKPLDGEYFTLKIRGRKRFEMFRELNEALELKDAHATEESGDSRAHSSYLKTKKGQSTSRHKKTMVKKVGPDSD

Experiments:
Experiment in all cases: co-IP; HEK293A cells co-transfected with untagged necdin (FL or ΔH4/5) and Myc-tagged PIAS1 forms or p53; lysates precipitated and blotted with antibodies to Myc and necdin (Fig. 7B: IP anti-necdin, blot anti-Myc)
[1] = biological target: T1, necdin (full-length, untagged) (mouse) (UniProt P25233)
T1 sequence: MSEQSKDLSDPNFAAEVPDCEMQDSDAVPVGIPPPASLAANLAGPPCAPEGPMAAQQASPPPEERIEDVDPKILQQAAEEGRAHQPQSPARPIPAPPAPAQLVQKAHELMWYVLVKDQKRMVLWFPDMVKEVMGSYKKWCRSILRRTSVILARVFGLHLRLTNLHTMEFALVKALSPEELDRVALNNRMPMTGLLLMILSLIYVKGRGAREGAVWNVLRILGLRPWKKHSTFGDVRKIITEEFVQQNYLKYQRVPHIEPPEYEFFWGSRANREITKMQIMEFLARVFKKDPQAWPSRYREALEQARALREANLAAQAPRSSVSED

Myc-p53 (mouse) = Myc-p53 (mouse) (UniProt P02340)
[2] = biological target: Myc-tagged PIAS1 (full-length) (mouse) (UniProt O88907)
[3] = biological target: T2, Myc-tagged PIAS1 aa 1-100 (NT) (mouse) (UniProt O88907)
T2 sequence: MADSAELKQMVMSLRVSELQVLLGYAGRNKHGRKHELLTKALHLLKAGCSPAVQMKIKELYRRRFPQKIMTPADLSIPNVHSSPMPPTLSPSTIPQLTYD

[4] = biological target: T3, Myc-tagged PIAS1 aa 101-300 (PD) (mouse) (UniProt O88907)
T3 sequence: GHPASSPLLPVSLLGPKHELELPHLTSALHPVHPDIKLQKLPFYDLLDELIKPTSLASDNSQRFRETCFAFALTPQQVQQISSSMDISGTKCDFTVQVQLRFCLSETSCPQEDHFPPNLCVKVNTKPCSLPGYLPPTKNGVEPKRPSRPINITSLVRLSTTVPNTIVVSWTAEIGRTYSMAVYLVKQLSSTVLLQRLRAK

[5] = biological target: Myc-tagged PIAS1 aa 301-400 (SR) (mouse) (UniProt O88907)
[6] = biological target: T4, Myc-tagged PIAS1 aa 401-651 (CT) (mouse) (UniProt O88907)
T4 sequence: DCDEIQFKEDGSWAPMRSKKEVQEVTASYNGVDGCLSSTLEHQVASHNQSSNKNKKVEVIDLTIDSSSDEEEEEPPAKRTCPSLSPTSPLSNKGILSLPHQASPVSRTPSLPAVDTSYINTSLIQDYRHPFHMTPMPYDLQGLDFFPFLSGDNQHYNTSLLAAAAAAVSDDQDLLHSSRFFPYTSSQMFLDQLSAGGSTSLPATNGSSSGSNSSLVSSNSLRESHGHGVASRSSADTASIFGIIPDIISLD

Molecule: Myc-tagged PIAS1 ΔCT (aa 1-400) (from UniProt O88907 1-400) (domain or fragment)
- binding [1]: binds

Molecule: Myc-tagged PIAS1 aa 301-400 (SR) (from UniProt O88907 301-400) (domain or fragment)
- binding [1]: binds

B2: Myc-tagged PIAS1 aa 101-300 (PD) (domain or fragment, UniProt O88907 101-300)
chain: T3 sequence
- binding [1]: binds

More lines, now with the values ahead:

- binding [1]: binds
Molecule: Myc-tagged PIAS1 ΔNT (aa 101-652) (from UniProt O88907 101-651) (domain or fragment)

- binding (Myc-p53 (mouse)): binds
- binding [2]: binds
- binding [3]: no binding
- binding [4]: binds
- binding [5]: binds
- binding [6]: no binding
B1: necdin (full-length, untagged) (protein, UniProt P25233 1-325)
chain: T1 sequence
